In publication PMC4336329 (PLoS ONE, 2015):
Among all 310,000 compounds or so, about 2,200 (0.71%) showed an effect of 50% or more. The effect is printed as a negative number. The list shows a part of the results.

Each molecule was assayed against human ether-à-go-go-related gene (hERG) potassium channel (human, UniProt Q12809) (assay: primary screen, population patch clamp on CHO cells stably expressing hERG).
Chain of human ether-à-go-go-related gene (hERG) potassium channel (Q12809 whole entry, looked up): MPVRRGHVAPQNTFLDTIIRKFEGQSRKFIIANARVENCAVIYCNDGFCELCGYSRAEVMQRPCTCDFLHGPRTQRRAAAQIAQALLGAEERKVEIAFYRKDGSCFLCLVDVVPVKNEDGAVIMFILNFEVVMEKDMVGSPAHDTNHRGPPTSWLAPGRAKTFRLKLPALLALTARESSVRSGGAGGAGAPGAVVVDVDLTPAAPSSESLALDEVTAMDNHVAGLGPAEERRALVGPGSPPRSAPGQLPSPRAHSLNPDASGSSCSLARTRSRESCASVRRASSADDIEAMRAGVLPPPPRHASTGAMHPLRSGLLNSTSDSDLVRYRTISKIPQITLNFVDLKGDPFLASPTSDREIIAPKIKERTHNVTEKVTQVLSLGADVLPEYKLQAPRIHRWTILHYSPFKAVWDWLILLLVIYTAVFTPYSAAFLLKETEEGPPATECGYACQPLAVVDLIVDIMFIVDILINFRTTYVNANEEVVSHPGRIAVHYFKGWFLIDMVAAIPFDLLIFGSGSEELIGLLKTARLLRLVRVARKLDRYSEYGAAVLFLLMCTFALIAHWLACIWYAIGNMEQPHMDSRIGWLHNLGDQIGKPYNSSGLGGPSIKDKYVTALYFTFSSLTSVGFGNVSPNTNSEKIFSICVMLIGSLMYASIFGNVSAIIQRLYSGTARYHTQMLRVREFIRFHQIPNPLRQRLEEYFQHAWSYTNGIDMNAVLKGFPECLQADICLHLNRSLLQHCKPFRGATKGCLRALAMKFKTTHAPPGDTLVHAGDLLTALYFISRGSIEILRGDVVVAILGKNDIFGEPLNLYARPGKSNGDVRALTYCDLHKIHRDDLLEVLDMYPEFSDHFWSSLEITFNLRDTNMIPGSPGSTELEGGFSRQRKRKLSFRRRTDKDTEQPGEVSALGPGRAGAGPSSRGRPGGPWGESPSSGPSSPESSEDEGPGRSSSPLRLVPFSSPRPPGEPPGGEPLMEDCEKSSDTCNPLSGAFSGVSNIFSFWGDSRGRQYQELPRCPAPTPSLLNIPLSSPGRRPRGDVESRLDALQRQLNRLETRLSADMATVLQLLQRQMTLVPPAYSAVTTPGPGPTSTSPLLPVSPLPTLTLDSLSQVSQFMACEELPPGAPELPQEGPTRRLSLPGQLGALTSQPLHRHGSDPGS

SMILES	hERG current change (%, negative = inhibition) at 1uM
Fc1ccc(-n2cc(-c3ccccc3)c3c(=S)nc[nH]c32)cc1	6.55%
Cc1nc(NN)nc(NCc2ccccc2)n1	5.89%
COc1ccc(OC)c(C2=NS(=O)(=O)N(C)C(C(=O)NCc3cccs3)=C2)c1	19%
CC(C)Cc1cc(C(=O)N2CCCC(C(=O)c3cc(F)ccc3F)C2)no1 (stereo not drawn)	6.18%
CCOC(=O)c1c(C)[nH]c(C(=O)COC(=O)CNC(=O)C2CCCCC2)c1C	4.97%
Cc1cc(C)c(C)c(S(=O)(=O)N2CCN(C(=O)C3CCC3)CC2)c1C	-0.0399%
COCCN(C(=O)CCl)C(C(=O)NC1CCCCC1)c1ccccc1C (stereo not drawn)	7.15%
Cn1nnc(NC(=O)c2ccccc2F)n1	2.53%
O=C(NCCCN1CCOCC1)C(=O)NCC1OCCCN1S(=O)(=O)c1cc(F)ccc1F (stereo not drawn)	17.7%
COc1ccc(COC(=O)NC2CCN(S(=O)(=O)c3ccc(OC)cc3)CC2)cc1	11.8%
O=C(Nc1ccccc1Cl)c1ccc2c(=O)n3c(nc2c1)CCC3	6.56%
O=C(CCC(=O)c1ccccc1)NCCOc1ccccc1	7.02%
COc1ccc(-n2nc3c(c2NC(=O)c2cc(Br)ccc2Cl)CS(=O)C3)cc1 (stereo not drawn)	-31.4%
Cc1cccc(N2CCN(CC3CCCCC3)CC2)c1C	14.1%
C=CCNCC(=O)Nc1ccccc1SCC(=O)Nc1ccsc1C(=O)OC	-1.71%
O=C(CNC(=O)c1ccc(Cl)cc1Cl)OCC(=O)N1CCCC1=O	3.65%
O=C(Nc1cccc2ncccc12)c1ccccc1[N+](=O)[O-]	13.4%
COCCN1C(=O)C(=O)/C(=C(/O)c2cccc(OC)c2)C1c1ccco1 (stereo not drawn)	21.4%
Cc1nc2ccc(C(=O)N3c4ccccc4CC3C)cc2s1 (stereo not drawn)	7.37%
O=C(NCc1ccc2c(c1)OCO2)c1cnc2n(c1=O)CCS2	11.4%
COc1ccc(C)cc1NC(=O)c1cccc(C(=O)Nc2cc(C)ccc2OC)c1	8.18%
Cc1cc(OCC(=O)Nc2ccc(N3CCCC3)cc2)cc(C)c1Cl	7.5%
NNC(=O)c1ccc(Cl)cc1Cl	13.1%

SMILES	hERG current change (%, negative = inhibition) at 1uM
C=C(C)C1CC=C(C)/C(=N/NC(=O)C2CC2c2ccccc2)C1 (stereo not drawn)	11.1%
Cc1ccc(NS(=O)(=O)c2cc(NC(=O)C(C)Oc3ccccc3)ccc2C)c(C)c1 (stereo not drawn)	6.5%
COc1ccc(NC(=O)Nc2nnc(N3CCCCC3C)s2)cc1OC (stereo not drawn)	7.51%
COCc1cc(C)nc2sc(C(=O)Nc3ccccc3F)c(N)c12	12.3%
CC(C)(C)N(Cc1ccccc1)C(=O)c1ccc2c(c1)OCCO2	5.7%
N=C(N)c1c(O)n(C2CCCCC2)c(=O)n(C2CCCCC2)c1=O	12.2%
O=C(O)C1=C(C(=O)Nc2ccc(F)c(Cl)c2)CCCC1	15%
CN1C(=O)C(C)(C)c2cc(S(=O)(=O)N3CCCC(C(=O)Nc4ccc(Cl)cc4)C3)ccc21 (stereo not drawn)	10.2%
CC1CCN(C(=O)C(Cc2ccccc2)n2cccc2)CC1 (stereo not drawn)	13.1%
CC(C)(C(N)=O)N1CCN(c2ncc(C(F)(F)F)cc2Cl)CC1	-26.5%
COc1ccccc1N(CC(=O)NCc1ccccc1)C(=O)CCC(=O)Nc1ccccn1	6.5%
CC(=O)CN1C(=O)NC2(CCCc3ccccc32)C1=O (stereo not drawn)	19.6%
c1cnc(N2CCN(c3ccc4ccccc4n3)CC2)nc1	13.9%
COc1ccc(CCN(C(=O)Cn2nnc3ccccc32)C(C(=O)NCC2CCCO2)c2ccncc2)cc1OC (stereo not drawn)	20.4%
CCOc1ccc(C(C(=O)NC2CCCCC2)N(CCOC)C(=O)c2snc(C(N)=O)c2N)cc1 (stereo not drawn)	-13%
Cc1ccc(S(=O)(=O)N2CCOCC2)cc1C(=O)OCC(=O)NC1CC1	0.895%
Cc1ccc(S(=O)(=O)N(CC(=O)N(C)C)c2cccc([N+](=O)[O-])c2)cc1	18%
CCn1c2ccccc2c2cc(C3N=C(N)Nc4nc5ccccc5n43)ccc21 (stereo not drawn)	-1.68%
CCN(CC)S(=O)(=O)c1ccc(OC(C)C)nc1	3.95%
CCOC(=O)N/N=C/c1ccc(C)o1	5.21%
Cc1nnc(NC(=O)CSc2nnc(-c3ccco3)o2)s1	11.6%
CCOc1ncccc1C(=O)OCC(=O)Nc1ccc(S(=O)(=O)N2CCOCC2)cc1	9.61%
COc1cc(/C=C/C(=O)Nc2cccnc2)cc(OC)c1OC	18.3%

SMILES	hERG current change (%, negative = inhibition) at 1uM
COc1ccc(-c2sc(Nc3ccc(F)c(F)c3F)nc2CCC(=O)NN)cc1	15.6%
CC(=O)c1ccc(N(CC(=O)NC2CCCC2)C(=O)c2ccc(C)s2)cc1	5.54%
CC(=O)c1ccc2c(c1)C1C=CCC1C(c1ccc(S(=O)(=O)N3CCOCC3)cc1)N2 (stereo not drawn)	17.1%
N#Cc1ccc(CSCC(=O)O)cc1	13.5%
CC(=O)N1CCN(C(=O)c2ccc(S(=O)(=O)Nc3ccccc3Cl)cc2)CC1	9.42%
OC[C@H]1OC(O)C[C@@H](O)[C@@H]1O (stereo partly drawn)	9.68%
CCCCCCOc1ccc(C(CC(N)=O)C(=O)O)cc1 (stereo not drawn)	13.1%
Cc1ccccc1N(CC(=O)NC1CCCCC1)C(=O)c1csnn1	16.1%
COc1ccc2nc(SCc3ccccc3)nc(C)c2c1	10.3%
O=C(O)c1ccc(S(=O)(=O)N2CCCc3ccccc32)cc1	3.23%
N/C(=N\OC(=O)c1ccccc1Cl)c1cccnc1	-4.68%
Cc1ccc(NC2=NC(c3ccc(F)cc3)n3c(nc(C)cc3=O)N2)cc1 (stereo not drawn)	11.9%
Cc1ccc(NS(=O)(=O)c2ccc(C(=O)N3CCC3)cc2)cc1	12.5%
CCC(Oc1ccccc1)C(=O)Nc1ccccc1C(=O)N1CCN(C)CC1 (stereo not drawn)	10.5%
Cc1c(C)c(C)c2[nH]c(=S)[nH]c2c1C	18.6%
Cc1ccc(C)c(Nc2c([N+](=O)[O-])ccc3nonc23)c1	17.4%
COCCCn1c(CCC(=O)O)ccc1-c1ccc(F)cc1	8.47%
O=C(/C=C/c1ccc([N+](=O)[O-])cc1)OCC(=O)N1c2ccccc2Sc2ccccc21	0.649%
CCOc1ccc(NC(=O)CCC(=O)NNC(=O)c2ccco2)cc1	10.1%
COC(=O)Cc1c(C)c2ccc(OCC(=O)N3CCOCC3)cc2oc1=O	16.5%
Cc1nnsc1-c1nc2ccccc2[nH]1	6.79%
COc1ccc2oc(=O)c(/C(C)=N/Nc3ccccc3)cc2c1	-1.96%
Clc1ccccc1-c1nn2c(-c3ccncc3)nnc2s1	10.6%

SMILES	hERG current change (%, negative = inhibition) at 1uM
CCOCCCN(C(=O)Cn1nnc(-c2ccc(OC)c(OC)c2)n1)C(C(=O)NCC1CCCO1)c1ccc(F)cc1 (stereo not drawn)	4.21%
N#Cc1ccsc1NC(=O)CN1CCN(c2ccccc2O)CC1	7.72%
CCN(CC)C(=O)CSc1nc(COc2ccccc2)nc2ccccc12	8.96%
CCc1ccccc1N(CC(=O)NC(C)C)C(=O)CCC(=O)Nc1nccs1	7.2%
Cc1nc2c(-c3ccc(F)cc3)c(C)nn2c(C)c1CCC(=O)NCc1ccco1	-0.188%
Nc1nc(-c2cccnc2)nn1C(=O)Cc1ccccc1	5.78%
Cn1cccc1Cc1nnc(SCC(=O)Nc2ccc3c(c2)OCCO3)n1CCc1ccccc1	7.16%
CCn1ccc(C(=O)Nc2ccc(Cl)cn2)n1	-5.08%
O=C(Nc1ccc(S(=O)(=O)Nc2nccs2)cc1)c1ccc(F)cc1	-8.07%
COC(=O)c1cc(C)nc2c1C(=O)C(=O)C=C2N1CCOCC1	12.8%
O=C(CSc1nc2ccsc2c(=O)n1Cc1ccccc1)NCc1ccco1	-17.3%
O=C(Nc1sc2c(c1C(=O)O)CCCCC2)c1cccnc1	15.5%
Cc1ccc(S(=O)(=O)/C(C#N)=C/c2c(N3CCCCC3)nc3ccccn3c2=O)cc1	-0.507%
Cc1ccc(C(=O)N2CCCC2)cc1Br	10.4%
Cc1ccc(NC(=O)C(=Cc2ccc(C(=O)O)cc2)C(=O)Nc2ccc(C)cc2C)c(C)c1	8.85%
COc1cc(Cl)ccc1NC(=S)N(CCN1CCOCC1)C1CCN(C(C)=O)CC1	16.2%
Cc1cc(S(=O)(=O)N2CCN(c3ccc(F)cc3)CC2)c(C)s1	4.8%
S=c1[nH]cnc2scc(-c3ccccc3)c12	16.8%
O=C(Nc1c(C(=O)C2CC2)oc2ccccc12)c1ccc(Cl)cc1	17.7%
CCOc1cc(NC(=S)NCCCN2CCOCC2)c(OCC)cc1NC(=O)CC(C)C	19%
Cc1cc2occ(CC(=O)N(C)CC(=O)Nc3ccc(F)cc3)c2cc1C	7.62%
